# From the supplement of paper PMC8728848
# Some of the results follow.
# B1: Mermaid3 (Stilbonema majum) (protein)
# chain: MGSSHHHHHHSSGLVPRGSHMAASGWLRSPQGTVVKLYRRSLSWSKADEFCKDVDGRLVVDRTADMHLFLIKNVLKEKKSRVWVGLRRTASHSRTWIWSDGTRQNEGDLDANLWLRDEPNDAAGEEECALFMYSPWEKAWGLNDYLCRGGCRNYQFICEKWIR
# How the values were obtained:
# Assay in all cases: glycan array binding signal (z-score within array); higher = stronger binding
# Details in all cases: glycan notation: IUPAC condensed, linker removed
# [1] = target: Fuc(a1-2)[Gal(a1-3)]Gal(b1-4)GlcNAc(b1-2)Man(a1-3)[Fuc(a1-2)[Gal(a1-3)]Gal(b1-4)GlcNAc(b1-2)Man(a1-6)]Man(b1-4)GlcNAc(b1-4)[Fuc(a1-6)]GlcNAc
# Summary of the method: (§1)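 Arrays were curated from the Consortium for Functional Glycomics database, 3228 in total, and kept only where the protein sequence was available. Binding is expressed as a within-array Z-score. This score was averaged across arrays of the same protein sequence at different concentrations or buffers and across linkers, and negative values can be read as non-binding.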
# [2] = target: Fuc(a1-2)[Gal(a1-3)]Gal(b1-4)GlcNAc(b1-3)GalNAc
# Summary of the method: as §1
# [3] = target: Fuc(a1-2)[Gal(a1-3)]Gal(b1-4)GlcNAc(b1-3)[Fuc(a1-2)[Gal(a1-3)]Gal(b1-4)GlcNAc(b1-6)]GalNAc
# Summary of the method: as §1
# [4] = target: Fuc(a1-2)[Gal(a1-3)]Gal(b1-4)GlcNAc(b1-6)GalNAc
# Summary of the method: as §1
# [5] = target: Fuc(a1-2)[Gal(a1-3)]Gal(b1-4)[Fuc(a1-3)]Glc
# Summary of the method: as §1
# [6] = target: Fuc(a1-2)[Gal(a1-3)]Gal(b1-4)[Fuc(a1-3)]GlcNAc
# Summary of the method: as §1
# [7] = target: Fuc(a1-2)[Gal(a1-3)]Gal(b1-4)[Fuc(a1-3)]GlcNAc(b1-3)GalNAc
# Summary of the method: as §1
# [8] = target: Fuc(a1-2)[Gal(a1-4)]Gal(b1-4)GlcNAc
# Summary of the method: as §1
# [9] = target: Fuc(a1-2)[GalNAc(a1-3)]Gal
# Summary of the method: as §1
# [10] = target: Fuc(a1-2)[GalNAc(a1-3)]Gal(b1-3)GalNAc(a1-3)[Fuc(a1-2)]Gal(b1-4)GlcNAc
# Summary of the method: as §1
# [11] = target: Fuc(a1-2)[GalNAc(a1-3)]Gal(b1-3)GalNAc(b1-3)Gal(a1-4)Gal(b1-4)Glc
# Summary of the method: as §1
# [12] = target: Fuc(a1-2)[GalNAc(a1-3)]Gal(b1-3)GlcNAc
# Summary of the method: as §1
# [13] = target: Fuc(a1-2)[GalNAc(a1-3)]Gal(b1-3)GlcNAc(b1-2)Man(a1-3)[Fuc(a1-2)[GalNAc(a1-3)]Gal(b1-3)GlcNAc(b1-2)Man(a1-6)]Man(b1-4)GlcNAc(b1-4)GlcNAc
# Summary of the method: as §1
# [14] = target: Fuc(a1-2)[GalNAc(a1-3)]Gal(b1-3)GlcNAc(b1-2)Man(a1-3)[Fuc(a1-2)[GalNAc(a1-3)]Gal(b1-3)GlcNAc(b1-2)Man(a1-6)]Man(b1-4)GlcNAc(b1-4)[Fuc(a1-6)]GlcNAc
# Summary of the method: as §1
# [15] = target: Fuc(a1-2)[GalNAc(a1-3)]Gal(b1-3)GlcNAc(b1-3)GalNAc
# Summary of the method: as §1
# [16] = target: Fuc(a1-2)[GalNAc(a1-3)]Gal(b1-3)GlcNAc(b1-6)GalNAc
# Summary of the method: as §1
# [17] = target: Fuc(a1-2)[GalNAc(a1-3)]Gal(b1-4)Glc
# Summary of the method: as §1
# [18] = target: Fuc(a1-2)[GalNAc(a1-3)]Gal(b1-4)GlcNAc
# Summary of the method: as §1
# [19] = target: Fuc(a1-2)[GalNAc(a1-3)]Gal(b1-4)GlcNAc(b1-2)Man
# Summary of the method: as §1
# [20] = target: Fuc(a1-2)[GalNAc(a1-3)]Gal(b1-4)GlcNAc(b1-2)Man(a1-3)[Fuc(a1-2)[GalNAc(a1-3)]Gal(b1-4)GlcNAc(b1-2)Man(a1-6)]Man(b1-4)GlcNAc(b1-4)GlcNAc
# Summary of the method: as §1
# [21] = target: Fuc(a1-2)[GalNAc(a1-3)]Gal(b1-4)GlcNAc(b1-2)Man(a1-3)[Fuc(a1-2)[GalNAc(a1-3)]Gal(b1-4)GlcNAc(b1-2)Man(a1-6)]Man(b1-4)GlcNAc(b1-4)[Fuc(a1-6)]GlcNAc
# Summary of the method: as §1
# [22] = target: Fuc(a1-2)[GalNAc(a1-3)]Gal(b1-4)GlcNAc(b1-3)Gal(b1-4)GlcNAc
# Summary of the method: as §1
# [23] = target: Fuc(a1-2)[GalNAc(a1-3)]Gal(b1-4)GlcNAc(b1-3)Gal(b1-4)GlcNAc(b1-3)Gal(b1-4)GlcNAc
# Summary of the method: as §1
# [24] = target: Fuc(a1-2)[GalNAc(a1-3)]Gal(b1-4)GlcNAc(b1-3)GalNAc
# Summary of the method: as §1
# [25] = target: Fuc(a1-2)[GalNAc(a1-3)]Gal(b1-4)GlcNAc(b1-3)[Fuc(a1-2)[GalNAc(a1-3)]Gal(b1-4)GlcNAc(b1-6)]GalNAc
# Summary of the method: as §1
# [26] = target: Fuc(a1-2)[GalNAc(a1-3)]Gal(b1-4)GlcNAc(b1-6)GalNAc
# Summary of the method: as §1
# [27] = target: Fuc(a1-2)[GalNAc(a1-3)]Gal(b1-4)[Fuc(a1-3)]GlcNAc
# Summary of the method: as §1
# [28] = target: Fuc(a1-2)[GalNAc(a1-3)]Gal(b1-4)[Fuc(a1-3)]GlcNAc(b1-3)GalNAc
# Summary of the method: as §1
# [29] = target: Fuc(a1-2)[GalNAc(a1-4)]Gal(b1-4)GlcNAc
# Summary of the method: as §1
# [30] = target: Fuc(a1-2)[GalNAc(b1-3)]Gal
# Summary of the method: as §1
# [31] = target: Fuc(a1-3)GlcNAc
# Summary of the method: as §1
# [32] = target: Fuc(a1-3)[Gal(b1-4)]Glc6S
# Summary of the method: as §1
# [33] = target: Fuc(a1-3)[Gal(b1-4)]GlcNAc
# Summary of the method: as §1
# [34] = target: Fuc(a1-3)[Gal(b1-4)]GlcNAc(b1-2)Man
# Summary of the method: as §1
# [35] = target: Fuc(a1-3)[Gal(b1-4)]GlcNAc(b1-2)Man(a1-3)[Fuc(a1-3)[Gal(b1-4)]GlcNAc(b1-2)Man(a1-6)]Man(b1-4)GlcNAc(b1-4)GlcNAc
# Summary of the method: as §1
# [36] = target: Fuc(a1-3)[Gal(b1-4)]GlcNAc(b1-2)Man(a1-3)[Fuc(a1-3)[Gal(b1-4)]GlcNAc(b1-2)Man(a1-6)]Man(b1-4)GlcNAc(b1-4)[Fuc(a1-6)]GlcNAc
# Summary of the method: as §1
# [37] = target: Fuc(a1-3)[Gal(b1-4)]GlcNAc(b1-3)Gal(b1-3)[Fuc(a1-4)]GlcNAc
# Summary of the method: as §1
# [38] = target: Fuc(a1-3)[Gal(b1-4)]GlcNAc(b1-3)Gal(b1-4)[Fuc(a1-3)]GlcNAc
# Summary of the method: as §1
# [39] = target: Fuc(a1-3)[Gal(b1-4)]GlcNAc(b1-3)Gal(b1-4)[Fuc(a1-3)]GlcNAc(b1-3)Gal(b1-4)[Fuc(a1-3)]GlcNAc
# Summary of the method: as §1
# [40] = target: Fuc(a1-3)[Gal(b1-4)]GlcNAc(b1-3)GalNAc
# Summary of the method: as §1
# [41] = target: Fuc(a1-3)[Gal(b1-4)]GlcNAc(b1-6)GalNAc
# Summary of the method: as §1
# [42] = target: Fuc(a1-3)[Gal(b1-4)]GlcNAc(b1-6)[Gal(b1-3)GlcNAc(b1-3)]Gal(b1-4)Glc
# Summary of the method: as §1
# [43] = target: Fuc(a1-3)[Gal(b1-4)]GlcNAc6S
# Summary of the method: as §1
# [44] = target: Fuc(a1-3)[Gal3S(b1-4)]Glc
# Summary of the method: as §1
# [45] = target: Fuc(a1-3)[Gal3S(b1-4)]GlcNAc
# Summary of the method: as §1
binder,measurement,setting,value
B1,glycan array binding signal (z-score),[1],-0.404
same,glycan array binding signal (z-score),[2],-0.662
same,glycan array binding signal (z-score),[3],0.468
same,glycan array binding signal (z-score),[4],-0.383
same,glycan array binding signal (z-score),[5],-0.619
same,glycan array binding signal (z-score),[6],-0.034
same,glycan array binding signal (z-score),[7],-0.592
same,glycan array binding signal (z-score),[8],3.05
same,glycan array binding signal (z-score),[9],-0.436
same,glycan array binding signal (z-score),[10],-0.848
same,glycan array binding signal (z-score),[11],-0.302
same,glycan array binding signal (z-score),[12],0.176
same,glycan array binding signal (z-score),[13],-0.363
same,glycan array binding signal (z-score),[14],-0.494
same,glycan array binding signal (z-score),[15],0.026
same,glycan array binding signal (z-score),[16],-0.726
same,glycan array binding signal (z-score),[17],-0.766
same,glycan array binding signal (z-score),[18],-0.335
same,glycan array binding signal (z-score),[19],-0.726
same,glycan array binding signal (z-score),[20],-0.51
same,glycan array binding signal (z-score),[21],0.166
same,glycan array binding signal (z-score),[22],-0.69
same,glycan array binding signal (z-score),[23],-0.255
same,glycan array binding signal (z-score),[24],-0.58
same,glycan array binding signal (z-score),[25],-0.54
same,glycan array binding signal (z-score),[26],2.24
same,glycan array binding signal (z-score),[27],0.773
same,glycan array binding signal (z-score),[28],-0.499
same,glycan array binding signal (z-score),[29],0.132
same,glycan array binding signal (z-score),[30],-0.814
same,glycan array binding signal (z-score),[31],-0.325
same,glycan array binding signal (z-score),[32],1.71
same,glycan array binding signal (z-score),[33],0.325
same,glycan array binding signal (z-score),[34],-0.796
same,glycan array binding signal (z-score),[35],-0.492
same,glycan array binding signal (z-score),[36],-0.113
same,glycan array binding signal (z-score),[37],-0.308
same,glycan array binding signal (z-score),[38],0.021
same,glycan array binding signal (z-score),[39],-0.463
same,glycan array binding signal (z-score),[40],0.062
same,glycan array binding signal (z-score),[41],-0.74
same,glycan array binding signal (z-score),[42],0.193
same,glycan array binding signal (z-score),[43],3.67
same,glycan array binding signal (z-score),[44],-0.589
same,glycan array binding signal (z-score),[45],-0.172
